# In all, about 110,000 compounds went through this assay and about 230 (0.21%) showed an effect of 50% or more. Some of the results follow.
# Target: DPAP1 (Plasmodium falciparum, UniProt Q8IIJ9)
# Test: primary screen, percent inhibition; read by cleavage of a fluorogenic dipeptide substrate; higher = more effect of the substance
# Design: species or system P. falciparum D10 trophozoite lysates; single well
# 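Also: 30 min substrate incubation versus DMSO and 10 µM JCP410 controls.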
# DPAP1, sequence (Q8IIJ9 whole entry, looked up): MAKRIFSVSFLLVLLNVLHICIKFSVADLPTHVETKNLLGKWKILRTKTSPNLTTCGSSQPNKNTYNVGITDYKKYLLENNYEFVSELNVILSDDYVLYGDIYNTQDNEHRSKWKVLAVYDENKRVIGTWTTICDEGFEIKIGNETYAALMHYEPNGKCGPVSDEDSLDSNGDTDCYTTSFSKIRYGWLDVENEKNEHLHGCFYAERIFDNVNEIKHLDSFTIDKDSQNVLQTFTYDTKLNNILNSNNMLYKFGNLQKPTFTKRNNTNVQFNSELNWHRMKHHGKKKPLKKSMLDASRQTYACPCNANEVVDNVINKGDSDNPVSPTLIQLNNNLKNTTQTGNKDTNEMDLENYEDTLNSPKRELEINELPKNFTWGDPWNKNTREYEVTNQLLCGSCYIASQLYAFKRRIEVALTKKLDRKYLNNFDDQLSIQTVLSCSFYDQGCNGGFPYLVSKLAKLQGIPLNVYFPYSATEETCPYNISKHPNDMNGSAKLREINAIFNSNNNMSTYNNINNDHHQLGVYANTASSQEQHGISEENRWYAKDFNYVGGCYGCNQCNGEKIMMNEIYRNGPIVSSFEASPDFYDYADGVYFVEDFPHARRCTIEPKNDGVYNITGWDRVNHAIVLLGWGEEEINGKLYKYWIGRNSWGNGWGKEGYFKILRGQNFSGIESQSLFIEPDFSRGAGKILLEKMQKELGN
row,Structure (SMILES),% Inhibition @ 10 uM [%]
1,O=C(O)C(Sc1nccc(-c2ccccc2)n1)c1ccccc1 (stereo not drawn),7.67
2,CCC(C)NC(=O)C(Cc1ccccc1)n1cccc1 (stereo not drawn),-0.692
3,COCCCn1c(=N)c(C(N)=S)cc2c(=O)n3cccc(C)c3nc21,-1.47
4,CC1CC(C)CN(C(=O)c2cc3c(s2)-c2ccc(Cl)cc2S(=O)(=O)C3)C1 (stereo not drawn),-2.45
5,COc1ccc(/C(O)=C/C=N/c2ccc(NC(C)=O)cc2)cc1OC,1.35
6,CCOc1ccccc1NC(=O)CN(c1ccc(Br)cc1)S(C)(=O)=O,5.12
7,COC(=O)c1cc(S(=O)(=O)N2CCCCC2C)c[nH]1 (stereo not drawn),-4.68
8,COc1cc(CNC2CCCC2)ccc1OCC(=O)NC(C)(C)C,7.02
9,O=C(NCCc1ccccc1)c1cc2ccccc2oc1=O,5.7
10,O=C1NCCCC[C@@H]1NC1CCC(c2ccccc2)CC1 (stereo partly drawn),1.88
11,CC1=C(C(=O)Nc2cccnc2)C(c2cccc(Br)c2)n2nc(-c3ccccc3)nc2N1 (stereo not drawn),-0.545
12,CCC(CC)C(=O)Nc1cccc(NC(=O)C(CC)CC)c1,3.74
13,COc1ccccc1NC1SC(=O)N(Cc2cccc(C(=O)O)c2)C1=O (stereo not drawn),-19.7
14,Cc1nnc(NC(=O)CSc2nc(C)c(Cc3ccc(O)cc3)[nH]2)s1,0.883
15,OC(C#CCCN1CCCCC1)(c1ccccc1)C1CCCCC1 (stereo not drawn),0.774
16,CCO/C(O)=C1\C(C)=NC2=C(C(=O)CCC2)C1c1cc(CSc2nnnn2C)cs1 (stereo not drawn),3.66
17,CN1CCCN(Cc2cccc(O)c2)CC1,5.55
18,COc1ccc(Cn2c(=O)c(C#N)cc3c(=O)n4cc(C)ccc4nc32)cc1,-2.28
19,O=C(NCCC1=CCCCC1)Nc1ccc(Cl)cc1,2.44
20,COc1ccccc1CC(=N)NOC(=O)/C=C/c1ccccc1,-1.33
21,COCCNC(=O)Cn1ncc2ccccc21,4.84
22,CCN(CC)S(=O)(=O)c1ccc(Cl)c(C(=O)Nc2cccc(C(C)=O)c2)c1,-3.24
23,Cc1cc(OCC(=O)ONC(=O)c2ccc(Cl)cc2)ccc1Br,-0.386
24,O=C(Nc1ccc2c3c(cccc13)CC2)c1ccccc1F,1.29
25,c1ccc(-c2ccc(CN3CCOCC3)cc2)cc1,-0.0494

row,Structure (SMILES),% Inhibition @ 10 uM [%]
1,CCc1nn(CC(=O)NCCOC)c(=O)c2cc3ccccc3n12,3
2,CC(C)C[C@H](NC(=O)N1CCN(C(=O)C2CCCO2)CC1)C(=O)NCC#N (stereo partly drawn),2.87
3,Cc1cc(-c2ccco2)c(C#N)c(SCC(=O)c2ccc(O)c(O)c2)n1,12.5
4,CC1(C)CC(=O)c2cnc(NC(=O)CSc3nc4ccccc4o3)nc2C1,-13.3
5,CCOC(=O)CNS(=O)(=O)c1ccccc1,-3.62
6,CC(C)(C)c1ccc(S(=O)(=O)Nc2cc(SCC(=O)O)c(O)c3ccccc23)cc1,4.11
7,O=c1c(CN2CCN(c3ccc(Cl)cc3)CC2)coc2c(Cl)cc(Cl)cc12,2.1
8,COc1ccccc1N1CCN(S(=O)(=O)c2c(C)cc(C)cc2C)CC1,0.273
9,COc1cccc(/C=C2/SC(=O)N(CC(=O)Nc3ccc(C)cc3)C2=O)c1O,30.1
10,COc1ccccc1/C=C/c1nn2c(C3COc4ccccc4O3)nnc2s1 (stereo not drawn),50.2
11,CCC(C)NC(=O)CN1CCN(Cc2ccc(Cl)cc2)C1=O (stereo not drawn),-3.28
12,COc1cccc2c1OC1(C)CC2NC(=S)N1 (stereo not drawn),-7.6
13,CCCCN(C)CCNC(=O)Cn1ncc2c(=O)oc3ccc(C)cc3c21,3.2
14,COCc1nc2ccccc2n1Cc1ccc(C(C)C)cc1,4.3
15,CC1=C(c2ccc(C)cc2)S(=O)(=O)N=C1N1CCN(Cc2ccccc2)CC1,3.87
16,O=S(=O)(c1ccccc1)N1N=C(c2ccc(Cl)cc2)CC1c1ccco1 (stereo not drawn),0.59
17,CCOC(=O)c1c(C)n(C)c2ccc(OCC(O)CNCCc3ccccc3)cc12 (stereo not drawn),0.415
18,CCCNC(=O)c1cc(-c2ccc(O)cc2)on1,1.37
19,CN(C)c1ccc(-c2ccncc2)cc1,2.76
20,Cc1ccc2nc(NC(=O)C3CCCN3S(=O)(=O)c3cccc4nsnc34)sc2c1 (stereo not drawn),-2.25
21,Cc1ccc(S(=O)(=O)Nc2nc3ccccc3nc2N2CCCCC2)cc1,-0.969
22,O=C1CC(NCCCN2CCOCC2)C(=O)N1c1ccccc1 (stereo not drawn),4.98
23,COCc1cc(C)nc2sc(C(=O)c3ccc(F)cc3F)c(N)c12,-0.947
24,Cc1nc2c(c(C)c1CCC(=O)N1CCN(C=O)CC1)c(=O)n(C)c(=O)n2C,5.13
25,CCc1ccc(C2N3CC4(C)CN2CC(C)(C3)C4)cc1 (stereo not drawn),3.25

row,Structure (SMILES),% Inhibition @ 10 uM [%]
1,CC(=O)c1ccc2c(c1)c1ccccc1n2CC(C)C,-2.98
2,CC(=O)Nc1c(Cl)cnn(-c2ccccc2)c1=O,2.22
3,CCOc1ccc(-n2c(C)c(C(C)=O)c(C(C)=O)c2C)cc1,-0.297
4,CC(C)(C)c1ccc(-c2nnc(SCC(=O)N3CCCCC3)o2)cc1,-4.66
5,CCOC(=O)C1CCCN(Cc2ccc(F)c(F)c2)C1 (stereo not drawn),-2.25
6,CC(C)NC(=O)C(=O)Nc1cccc(Cl)c1,-0.631
7,CCOC(=O)c1c(C)n(CCOc2ccccc2Cl)c2ccc(O)cc12,5.55
8,Cc1cc(/C=C2\NC(=O)NC2=O)c(C)n1-c1ccc(Br)cc1F,-3.87
9,COC(=O)C1=C(C)NC(=O)CC1c1cccc2ccccc12 (stereo not drawn),0.736
10,c1ccc2sc(N3CN(CCCN4CCOCC4)CN(c4nc5ccccc5s4)C3)nc2c1,-1.52
11,O=C1c2cccnc2C(=O)N1Cc1ccc(S(=O)(=O)NC2CCCC2)s1,-4.03
12,COc1ccc(CN2CCN(C(=O)c3cccc(Cl)c3)CC2)cc1OC,5.6
13,COC(=O)c1ccc(C2Oc3c(OC)cccc3C3CC(c4ccc(F)cc4)=NN32)cc1 (stereo not drawn),19.2
14,FC(F)(F)c1ccccc1CNC1CCN(Cc2ccccc2)CC1,-1.75
15,CC(=O)N1C(C(=O)O)CSC12CCN(C)CC2 (stereo not drawn),-1.7
16,COc1cccc(S(=O)(=O)Nc2ccc(C(=O)Nc3cccc(C(F)(F)F)c3)cc2)c1,-5.6
17,COc1ccc([N+](=O)[O-])cc1NC1CCCC(C)C1 (stereo not drawn),-1.54
18,COc1ccc2c(CNCc3cc(Br)ccc3OC)c(C(=O)O)n(C)c2c1,-5.99
19,O=C(Nc1nonc1N1C(=O)c2ccccc2C1=O)c1ccco1,-5.72
20,CCCN(CC1CC1)C1CCN(CC)CC1,-3.6
21,O=c1cc(C(F)(F)C(F)(F)C(F)(F)C(F)F)oc2ccccc12,0.131
22,COC(=O)C1=C(C)NC(=O)/C1=C\c1cccc2ccccc12,1.81
23,CNS(=O)(=O)c1cn(CC(=O)Nc2nc3ccc(OC)cc3s2)cc1S(=O)(=O)NC,-1.59
24,Cc1ccc(Cn2c(C)c(CNCC3CCCO3)c(C(=O)O)c2C)cc1 (stereo not drawn),-5.49
25,O=C(O)C12CC3CC(C1)CC(n1ncc(N4CCC(c5ccccc5)C4)c(Cl)c1=O)(C3)C2 (stereo not drawn),5.43

row,Structure (SMILES),% Inhibition @ 10 uM [%]
1,COc1cc(/C=C2\SC(NC(C)=O)=NC2=O)cc2sc(=O)oc12,26.6
2,CCOC(=O)C1=C(C)NC(=O)NC1c1cccc(C(F)(F)F)c1 (stereo not drawn),0.132
3,COc1ccc(-n2c(CNCc3ccc4c(c3)OCO4)nc3ccccc3c2=O)cc1,-7.17
4,CCOC(=O)c1c(C)[nH]c(C)c1S(=O)(=O)N1CCC(c2ccccc2)C1 (stereo not drawn),2.41
5,Cc1ccccc1Cn1c(C(=O)O)c(CNCCc2ccc(S(N)(=O)=O)cc2)c2ccccc21,-1.34
6,CCOc1ccc(-c2cc(C)n3nc(C(=O)NCc4ccco4)cc3n2)cc1,0.221
7,Cc1noc2ncnc(N3CC=C(c4ccccc4)CC3)c12,-5.58
8,COc1ccc(-n2c3c(c(=O)[nH]c2=O)C(NC(=O)c2cccs2)(C(F)(F)F)C(=O)N3)cc1 (stereo not drawn),-4.97
9,CS(=O)(=O)CCC(C(=O)NCCc1ccc(Cl)cc1)N1Cc2ccccc2C1=O (stereo not drawn),-0.769
10,CCOc1ccc(-c2csc3nc4ccccc4n23)cc1,-1.36
11,c1ccc(N2CCN(C3CCCCCC3)CC2)cc1,-3.6
12,Cc1ccc(S(=O)(=O)NCc2ccc(C(=O)NCCc3ccc(S(N)(=O)=O)cc3)cc2)cc1,0.718
13,CC1CCN(S(=O)(=O)c2ccc(Cc3ccc(S(=O)(=O)N4CCC(C)CC4)cc3)cc2)CC1,1.17
14,COc1ccc(C(=O)Nc2cccc(O)c2)cc1Cl,3.81
15,COC(=O)C1=C(C)N(C)C(=O)NC1c1cccc(OC)c1 (stereo not drawn),1.61
16,COc1ccc(CCN2C(=O)CC(C(C)c3ccccc3)C2=O)cc1OC (stereo not drawn),3.09
17,CC12CN3CC(C)(CN(C1)C3c1ccc(O)cc1O)C2=O (stereo not drawn),-0.807
18,N#CCNC(=O)[C@H](CSCc1ccccc1)NC(=O)c1ccc(O)cc1,-4.82
19,Cc1nc2c(sc3nc4c(cc32)COC(C)(C)C4)c(=O)n1CCN1CCOCC1,2.69
20,O=S1(=O)C(/C=N/Cc2cccs2)=C(O)c2sccc2N1Cc1ccc(Cl)cc1,-1.07
21,CCOc1cc(/C=C2/SC(=O)N(C(C)C)C2=O)cc(Cl)c1OCC(=O)O,-0.95
22,COc1cc(NS(=O)(=O)c2ccc(NC(=O)C(C)(C)C)cc2)nc(OC)n1,-2.15
23,CCOc1ccccc1N(CC(=O)NC1CCCC1)S(=O)(=O)c1ccc(C)cc1,-8.61
24,O=C(NCCc1ccccc1)c1cc(-c2ccc(Br)cc2)n[nH]1,5.93
